Measured values from the supplement of paper PMC12217912.
The other results are listed elsewhere or left out. The full chains were built here from the parent and the listed change. Inactive controls read about 0.05.

B1: TEV protease; numbered along this chain (parent)
chain: MGESLFKGPRDYNPISSSICHLTNESDGHTTSLYGIGFGPFIITNKHLFRRNNGTLVVQSLHGVFKVKDTTTLQQHLVDGRDMIIIRMPKDFPPFPQKLKFREPQREERICLVTTNFQTKSMSSMVSDTSCTFPSGDGIFWKHWIQTKDGQCGSPLVSTRDGFIVGIHSASNFTNTNNYFTSVPKNFMELLTNQEAQQWVSGWRLNADSVLWGGHKVFMVKPEEPFQPVKEATQL

Variants of: B1
Assay: raw area under fraction-flipped curve 0-4 h after induction (AUC4h, not background-subtracted), DNA-recorder readout of cleavage of the substrate (dimensionless); higher = more cleavage of the substrate by the protease variant
Details: temperature: 34 °C; time window: 0-4 h after rhamnose induction
Protocol: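 In vivo DNA recorder in E. coli TOP10(DE3) ΔrhaA at 34 °C. Each TEVp single-site mutant (parent TEVp 0) is paired with a single-site variant of the 7-mer TEVs (canonical ENLYFQ|S). The substrate sits between flexible linkers in a Bxb1-sfGFP-TEVs-SsrA fusion, so cleavage stabilises Bxb1 and speeds flipping of a recombination array, read by NGS. The value is the raw area under the fraction-flipped curve over 0-4 h after rhamnose induction (AUC4h), with ≥20 reads per time point. It is not background-subtracted; inactive controls average about 0.047.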
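Note: Bxb1 expression induced with 0.2% (w/v) L-rhamnose at OD600 near 0.5, cultures sampled hourly, flipped fraction per protease–substrate barcode pair counted by paired-end Illumina sequencing.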

Variant	area with substrate ENLAFQS	area with substrate ENLCFQS	area with substrate ENLDFQS	area with substrate ENLEFQS	area with substrate ENLFFQS	area with substrate ENLGFQS	area with substrate ENLHFQS	area with substrate ENLKFQS	area with substrate ENLMFQS	area with substrate ENLNFQS	area with substrate ENLRFQS	area with substrate ENLSFQS	area with substrate ENLVFQS	area with substrate ENLIFQS	area with substrate ENLLFQS	area with substrate ENLPFQS	area with substrate ENLWFQS	area with substrate ENLQFQS	area with substrate ENLTFQS
P40V	0.0628	0.0702	0.056	0.0717	0.083	0.03	0.0653	0.0847	0.095	0.0543	0.0798	0.0561	0.106						
I84D	0.0335	0.0571	0.0515	0.0474	0.0518		0.0477	0.0447	0.039	0.0503	0.0587	0.0446		0.0459	0.0477	0.0641	0.0515		
I84R	0.0556	0.067	0.0636	0.069	0.0691		0.0594	0.0757		0.0598		0.0641	0.0845	0.0566				0.0554	
L73N	0.0495	0.0605	0.0598		0.064	0.0511		0.0659		0.0591	0.0533	0.0469		0.0538	0.043	0.0621	0.0187		
L73H	0.0481		0.04	0.0601	0.0559		0.0428	0.0517	0.0597		0.0514	0.0549	0.0421	0.0572	0.0775	0.0363			
R51P	0.0698	0.0659	0.062	0.0563	0.0582		0.0744	0.0604	0.0602	0.0428	0.0686	0.0562		0.0658	0.077			0.0615	
R50I	0.0557			0.0592							0.0982	0.0597	0.0927	0.131		0.0437		0.0279	
R50G	0.0644	0.0425		0.0619	0.0812	0.0736	0.0692	0.0636		0.0283	0.0824	0.059	0.0734		0.0569	0.0643	0.0871		
F41H	0.0554		0.0573	0.0561	0.0786		0.0636	0.0633		0.0659	0.0747	0.0599		0.0781	0.0505		0.059		
K68H	0.0636	0.084		0.0368	0.0829	0.0571	0.0543	0.0626	0.082	0.0575		0.0733		0.112	0.0671	0.0627	0.0759		0.0606
K68W	0.0599		0.0568	0.0523	0.0818	0.0657	0.0184				0.0702	0.0549			0.0891	0.0458	0.0883	0.064	
K90R	0.143									0.0709	0.058					0.0511			
K90S	0.0555		0.0469		0.0765			0.0753	0.0788			0.0684	0.0765				0.0668		
P93T	0.0581		0.0617		0.0723	0.0702	0.0673	0.076		0.067						0.0608			
V78R	0.0576		0.0636			0.0616	0.0574	0.0634					0.061			0.0554		0.0566	
I42K	0.0522	0.0592	0.0547	0.0539	0.0462	0.0527	0.0406	0.0489	0.0366	0.0505	0.0458	0.0563	0.0482	0.0417		0.0411	0.0443	0.044	0.0446
F38H	0.0606	0.0631	0.0702	0.0743	0.0675		0.0611			0.0669		0.054	0.0938	0.082	0.0717	0.0656	0.0775	0.0642	
F38Q	0.0665	0.0635	0.0643	0.0628	0.0922	0.0591	0.0621	0.0675		0.0567	0.0666	0.0568	0.0737	0.0886	0.0667	0.0534	0.0559	0.0719	
L61P	0.052	0.0509	0.0701	0.0666	0.0786	0.055		0.0734	0.0734	0.0633	0.0687	0.0664		0.0884	0.0671				
P96I	0.0654	0.0523	0.0646	0.0597	0.0718	0.0539	0.0657		0.0802	0.056	0.0713	0.0474	0.0486	0.0813	0.0807	0.0611	0.0689		0.0501
P94F	0.0542		0.0654				0.0681	0.0848					0.0868						
P94R	0.106	0.0893	0.0691	0.0836	0.0967	0.0924	0.0732	0.0626		0.0722			0.0772		0.0754	0.0476	0.0612		
Q74K	0.097		0.0591	0.0773	0.0853			0.0851		0.0661	0.0833	0.066	0.0638			0.0528			
Q74M	0.0642		0.0705	0.0844	0.0743	0.0738	0.0663	0.0698	0.0643	0.0778	0.0674		0.0831	0.0983	0.0749	0.0665	0.0655	0.0777	
Q74A	0.0528		0.0609	0.0794	0.0777				0.049			0.0646	0.0733		0.0504	0.0522	0.0913	0.0807	0.0806
K66G	0.0696		0.07		0.0745			0.0726		0.0637		0.0602							0.0727
H62L	0.0258				0.128		0.0899	0.0977		0.0539		0.0701	0.136	0.0663				0.0598	
N53W	0.0681		0.0627		0.0809	0.0695	0.0585	0.0758	0.0736	0.066	0.0644	0.0547		0.0705		0.0589	0.0722	0.0641	0.0638
